Over roughly 33,000 sequences, “E-score (-0.5 to 0.5)” has its median near -0.035; the highest 2% begin near 0.35. The list shows a part of the results.
target: T1, Pdr3 (UniProt P33200); assay: PBM E-score (8-mer binding enrichment) (E-score (-0.5 to 0.5)); higher = stronger / more preferred TF binding; most listed sequences are background and not binding sites; settings: protein concentration: 200 nM; construct: GST-full length
T1 sequence: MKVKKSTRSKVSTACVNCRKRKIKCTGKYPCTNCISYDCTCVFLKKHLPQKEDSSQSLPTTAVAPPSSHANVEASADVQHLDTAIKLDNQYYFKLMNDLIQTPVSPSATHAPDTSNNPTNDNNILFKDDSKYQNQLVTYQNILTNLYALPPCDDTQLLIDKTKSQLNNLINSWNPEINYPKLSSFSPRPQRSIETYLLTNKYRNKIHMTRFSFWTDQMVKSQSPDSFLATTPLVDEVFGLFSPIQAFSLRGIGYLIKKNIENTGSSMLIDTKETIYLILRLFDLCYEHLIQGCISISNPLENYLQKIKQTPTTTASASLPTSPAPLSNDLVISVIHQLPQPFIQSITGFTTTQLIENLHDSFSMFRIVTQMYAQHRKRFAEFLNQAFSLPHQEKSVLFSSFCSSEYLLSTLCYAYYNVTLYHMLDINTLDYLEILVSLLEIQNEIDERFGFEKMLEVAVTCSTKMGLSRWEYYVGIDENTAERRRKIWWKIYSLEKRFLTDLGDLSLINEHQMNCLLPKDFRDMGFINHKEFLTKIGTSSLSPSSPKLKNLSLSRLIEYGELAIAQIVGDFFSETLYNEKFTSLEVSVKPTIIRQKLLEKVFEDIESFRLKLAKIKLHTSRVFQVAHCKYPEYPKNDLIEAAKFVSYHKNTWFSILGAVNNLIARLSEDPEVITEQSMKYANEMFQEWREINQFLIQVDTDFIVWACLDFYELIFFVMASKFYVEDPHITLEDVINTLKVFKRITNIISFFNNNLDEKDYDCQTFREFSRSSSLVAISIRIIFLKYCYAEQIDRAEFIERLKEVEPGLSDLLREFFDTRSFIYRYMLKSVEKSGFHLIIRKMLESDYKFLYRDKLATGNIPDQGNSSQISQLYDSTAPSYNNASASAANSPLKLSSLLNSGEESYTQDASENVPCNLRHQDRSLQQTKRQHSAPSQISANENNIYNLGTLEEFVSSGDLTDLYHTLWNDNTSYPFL
Description: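 Universal 'all 10-mer' protein binding microarrays (Agilent AMADID 015681) probed with GST-tagged S. cerevisiae TFs (full-length or DBD) made by in vitro transcription/translation (PURExpress), about 100-200 nM. Bound TF was detected with fluorescent anti-GST. Each ungapped 8-mer (which stands for itself and its reverse complement) is scored by the PBM enrichment score (E-score), a modified Wilcoxon-Mann-Whitney statistic from -0.5 to +0.5, computed with the Universal PBM Analysis Suite. Scale: above 0.35 generally sequence-specific binding.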

Row | Sequence | PBM E-score
1 | CTAGCACC | -0.136
2 | GGGGTTAC | -0.0554
3 | CTTGGACC | -0.243
4 | CGGGAATA | 0.331
5 | AGCAGAAC | -0.103
6 | GACCATAC | 0.12
7 | GGCGACCC | 0.116
8 | CGTATTGC | 0.0393
9 | ACGTTGGC | -0.237
10 | CGGTAGAG | 0.0223
11 | CGGCCCGC | 0.201
12 | AGGCTGGC | -0.272
13 | AGAAGCCT | -0.162
14 | GAGGTCGA | -0.0533
15 | GTGGATAA | 0.0146
16 | AAACAACG | 0.0211
17 | AGGCCTTG | -0.23
18 | GCCGTCGA | 0.104
19 | TCACCCAA | 0.0325
20 | CAACCACC | 0.013
21 | GGCTCCCA | -0.268
22 | ATGGAGGG | -0.276
23 | ATTGCCGC | 0.0297
24 | AAGATGGG | -0.163
25 | CGTTCTAA | 0.0223

Row | Sequence | PBM E-score
26 | AAAATATC | 0.0361
27 | AGAATAAC | -0.162
28 | CGGTACAA | 0.138
29 | AGTCCATG | -0.0461
30 | ACCTGAAC | -0.176
31 | GCTGATCC | 0.214
32 | GAGTTTCA | -0.0584
33 | CCACGCGC | -0.202
34 | CCGTTGTA | 0.279
35 | GCGTGTAC | -0.127
36 | GATTTCGC | 0.267
37 | AGTGACCC | -0.0252
38 | ATTGATCA | -0.0661
39 | AATATCGC | 0.24
40 | CGCGATTA | 0.173
41 | CCCAAACA | -0.0368
42 | GCAGCTAC | 0.0148
43 | AAGATTTA | -0.00253
44 | CGCCTAAA | -0.0326
45 | AGGTCAGC | -0.028
46 | CCCATGCG | -0.0983
47 | TATATCAA | 0.104
48 | AATACTTG | -0.11
49 | ATAGATCG | 0.0236
50 | CACGCAGC | -0.0366

Row | Sequence | PBM E-score
51 | AGTACGTC | 0.0162
52 | CAAGTTAG | 0.0297
53 | CTCTAAAA | -0.142
54 | AGGGTATC | -0.196
55 | AACACGTC | -0.151
56 | AACAACCT | -0.137
57 | CCGCCACA | 0.165
58 | CTTTTTCC | 0.206
59 | AGATATAT | 0.119
60 | CGCCAACC | 0.0221
61 | GGTAGAAA | -0.125
62 | GCATCTCC | 0.0623
63 | ACACTCTC | 0.0752
64 | AGCGAAAC | 0.151
65 | CTAACTAG | -0.00039
66 | GCGTCGAA | 0.114
67 | CCTGCGAA | -0.0887
68 | CAGCAGAA | -0.0552
69 | CCCATCCC | 0.133
70 | AGAAGAAC | -0.0559
71 | CGCATGAA | 0.0575
72 | AATGTATC | 0.0757
73 | CACACACA | -0.0991
74 | AGGCACAT | -0.0682
75 | CTACACGA | -0.0311

Row | Sequence | PBM E-score
76 | AAACATCC | 0.166
77 | ATGGCAAA | -0.123
78 | AACATGAG | -0.137
79 | ATGTACCC | -0.158
80 | ACAACCAG | -0.0298
81 | AATAGAGT | -0.255
82 | CAAGTGAG | -0.228
83 | CAATGTAA | 0.0665
84 | TAAAACGA | -0.17
85 | TCCCGTCA | 0.195
86 | CTCCACAG | -0.262
87 | AATCGAGG | 0.104
88 | AATGTCTG | -0.0793
89 | CGCGATGA | 0.152
90 | AAAACCGA | 0.112
91 | AGCAGGGA | -0.125
92 | ATTAATCA | 0.0039
93 | TCATGACA | 0.0587
94 | GAACGACC | -0.263
95 | CCTGAAGA | -0.0192
96 | ACCTGCCA | -0.131
97 | GGCTGCAA | 0.189
98 | ATCCCAGA | -0.204
99 | CCACAGAG | -0.124
100 | TCTATGAA | -0.164

Row | Sequence | PBM E-score
101 | CCAAAACA | -0.224
102 | ACATTCCA | -0.0365
103 | TGCTTCAA | -0.127
104 | AGGCCGCC | -0.00411
105 | ACCGGCCA | 0.096
106 | GAGATCCC | 0.181
107 | AATGGATC | 0.0773
108 | GAGATAAA | 0.122
109 | ACCTCAGA | -0.0977
110 | AGGCAGTG | -0.092
111 | ACCTCTCG | -0.0741
112 | ATGTAGCG | -0.0209
113 | ATAGAGGA | -0.219
114 | CGCGAGAG | -0.0205
115 | ACGGAAAA | 0.403
116 | AACCGGAC | 0.271
117 | ATGGTCAC | 0.0623
118 | TGTGGTAA | -0.125
119 | AGTCACAT | -0.0705
120 | CTCACAAC | 0.0403
121 | TAATCGGA | 0.324
122 | ATCCTCGA | -0.00063
123 | CGTTAAGA | -0.136
124 | CTCCGACA | 0.0789
125 | ACTCTTGG | -0.233

Row | Sequence | PBM E-score
126 | CCCATCGG | 0.259
127 | AGGCTCTA | -0.198
128 | TCAAGAGA | -0.168
129 | ATCGCTCC | -0.0532
130 | AGTCATCC | 0.00825
131 | CATAAGGA | -0.196
132 | GCGCGTAC | 0.0923
133 | CAGCCCGG | 0.309
134 | ATAGGGTG | -0.121
135 | GTTGGATA | -0.0683
136 | TCATATCA | -0.0642
137 | CCATCCAC | -0.0699
138 | AACTGATC | 0.0523
139 | CCGCAACG | 0.176
140 | ATTATCAA | -0.00314
141 | ACTAATCA | 0.0845
142 | CAATTTCG | -0.0923
143 | CAGGATCG | 0.0205
144 | AAAGAGAG | -0.0264
145 | CCCGGAAA | 0.449
146 | ACTAGCGC | -0.0608
147 | ACTGGCGA | -0.156
148 | ACGACATC | -0.0554
149 | CACTACCC | -0.169
150 | AATGGAAG | 0.0364

Row | Sequence | PBM E-score
151 | CTGCCGAA | 0.1
152 | ACACCGAG | 0.18
153 | CCTGGAAG | -0.203
154 | ATGGATGA | -0.0953
155 | ACCTAGTC | -0.124
156 | AGGGCTAT | -0.349
157 | TCACATCA | -0.0311
158 | CCTCATGA | -0.0842
159 | GACCACCC | -0.0682
160 | TACACGAA | 0.19
161 | ATCCGTTG | 0.376
162 | AACGTATG | -0.244
163 | ACCACCCG | 0.277
164 | AGGAGTTA | -0.0172
165 | TACGGGAA | 0.261
166 | CGGGAGAA | 0.201
167 | CAAGAGGG | -0.257
168 | AAATTACG | -0.141
169 | ACGAACTG | -0.0643
170 | AGGGATGC | -0.379
171 | ACTATGAC | -0.127
172 | ATTTGTCG | 0.0947

From the supplement of paper PMC3334620
